The supplement of paper PMC3334620
In all, about 33,000 sequences were measured (“E-score (-0.5 to 0.5)”: median about -0.017, highest 2% from about 0.3 on). The list shows a part of the results.

Each sequence was assayed against T1, Sut1 (UniProt P53032) (assay: PBM E-score (8-mer binding enrichment) (E-score (-0.5 to 0.5)); higher = stronger / more preferred TF binding; most listed sequences are background and not binding sites). Settings: protein concentration: 200 nM; construct: GST-full length.
T1 sequence: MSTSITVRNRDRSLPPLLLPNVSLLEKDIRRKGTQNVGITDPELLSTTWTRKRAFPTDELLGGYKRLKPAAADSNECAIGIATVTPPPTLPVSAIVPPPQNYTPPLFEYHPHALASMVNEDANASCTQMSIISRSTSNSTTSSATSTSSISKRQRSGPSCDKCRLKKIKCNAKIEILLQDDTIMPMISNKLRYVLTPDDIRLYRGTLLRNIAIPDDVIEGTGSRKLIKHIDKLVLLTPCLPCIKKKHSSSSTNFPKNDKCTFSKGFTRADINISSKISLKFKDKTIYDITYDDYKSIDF
Procedure, shortened: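 The E-score, a modified Wilcoxon-Mann-Whitney statistic, was computed by the Universal PBM Analysis Suite for every ungapped eight-base word pooled with its reverse complement. Scans behind it were normalised with masliner after bound GST-tagged yeast transcription factors were detected with fluorescent anti-GST. The proteins, at about 100-200 nM, had been applied to universal all-10-mer Agilent arrays made double-stranded by primer extension.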
For GTATCGAA, the “PBM E-score” value was 0.113.
With CTTTTCGA the “PBM E-score” value was 0.0839.
In the case of CGAACAAA, the “PBM E-score” value is reported as 0.234.
With TATTCGCA the “PBM E-score” value was 0.0506.
In the case of ATTCAGGA, the “PBM E-score” value is reported as 0.0993.
ATAGAGGC was tested, and the “PBM E-score” value was -0.288.
In the case of CCATATGA, the “PBM E-score” value is reported as -0.13.
For GCATGGTA, the “PBM E-score” value was -0.106.
With AAAGAACT the “PBM E-score” value was 0.119.
AGTATCGC was tested, and the “PBM E-score” value was -0.145.
With CTTCACGA the “PBM E-score” value was -0.167.
For CCCTCACA, the “PBM E-score” value was -0.337.
With ACCATCTC the “PBM E-score” value was -0.0647.
In the case of GGTTCAGA, the “PBM E-score” value is reported as -0.0644.
For GGTTTTGA, the “PBM E-score” value was 0.215.
With TCTGCCCA the “PBM E-score” value was -0.056.
With AGTGCGAT the “PBM E-score” value was 0.0266.
In the case of TCAATAAA, the “PBM E-score” value is reported as 0.106.
In the case of CCGATACC, the “PBM E-score” value is reported as -0.172.
TCCAGAGA was tested, and the “PBM E-score” value was -0.187.
For CTTTTGGA, the “PBM E-score” value was 0.0684.
AGAGGACC was tested, and the “PBM E-score” value was -0.296.
In the case of CAACCCAG, the “PBM E-score” value is reported as -0.24.
For CTGGACAA, the “PBM E-score” value was -0.205.
In the case of CGACAAAA, the “PBM E-score” value is reported as 0.274.
ACCACCGA was tested, and the “PBM E-score” value was -0.0384.
CGCATTAA was tested, and the “PBM E-score” value was 0.0301.
AACCTTGG was tested, and the “PBM E-score” value was 0.00151.
CCTCCTGC was tested, and the “PBM E-score” value was -0.209.
For TTGAGCAA, the “PBM E-score” value was -0.0501.
GAGTACGC was tested, and the “PBM E-score” value was -0.0779.
In the case of GCAGAGAC, the “PBM E-score” value is reported as -0.276.
In the case of GACTCAGA, the “PBM E-score” value is reported as -0.126.
For AATTTGAC, the “PBM E-score” value was 0.181.
With AAGCCCCG the “PBM E-score” value was 0.0824.
In the case of TACCGAGA, the “PBM E-score” value is reported as 0.0757.
For CAGACCAC, the “PBM E-score” value was -0.169.
CCTAGCGA was tested, and the “PBM E-score” value was -0.262.
In the case of ATTATAAA, the “PBM E-score” value is reported as 0.275.
In the case of ACTGCATC, the “PBM E-score” value is reported as -0.121.
In the case of CGGTTAAA, the “PBM E-score” value is reported as 0.171.
For GAGGTTGA, the “PBM E-score” value was -0.00781.
GACGGTGC was tested, and the “PBM E-score” value was -0.234.
AGCGTTGA was tested, and the “PBM E-score” value was -0.00854.
GTGGCCAC was tested, and the “PBM E-score” value was -0.147.
With AAGACGAG the “PBM E-score” value was -0.0762.
With ACTCGCGG the “PBM E-score” value was 0.075.
AGGGAGGC was tested, and the “PBM E-score” value was -0.221.
For ATGTCACG, the “PBM E-score” value was -0.226.
In the case of CGATGATC, the “PBM E-score” value is reported as 0.0382.
For GAGGCAAA, the “PBM E-score” value was -0.0375.
ATCGCTCG was tested, and the “PBM E-score” value was -0.0657.
In the case of ACTACACT, the “PBM E-score” value is reported as -0.0118.
In the case of ACGATAAC, the “PBM E-score” value is reported as 0.0725.
For TTTATAAA, the “PBM E-score” value was 0.182.
For ACTGGAAC, the “PBM E-score” value was -0.0112.
With AAGCCAGT the “PBM E-score” value was -0.176.
In the case of AGTCGATG, the “PBM E-score” value is reported as 0.0604.
In the case of TGGACACA, the “PBM E-score” value is reported as -0.00117.
For GCAGGGTA, the “PBM E-score” value was -0.112.
With ATGAGGTG the “PBM E-score” value was -0.145.
In the case of AATCCCTG, the “PBM E-score” value is reported as -0.146.
In the case of CCCGTCCC, the “PBM E-score” value is reported as -0.247.
CAAGGCTC was tested, and the “PBM E-score” value was -0.328.
GTAACTGA was tested, and the “PBM E-score” value was -0.138.
CGAGCATA was tested, and the “PBM E-score” value was -0.0666.
In the case of AAGTGCCA, the “PBM E-score” value is reported as -0.0565.
For GGATGCAA, the “PBM E-score” value was 0.0448.
CGAAAAAC was tested, and the “PBM E-score” value was 0.151.
With GTTGTGGA the “PBM E-score” value was -0.0256.
CAGTATGG was tested, and the “PBM E-score” value was -0.0986.
In the case of TCAACCGA, the “PBM E-score” value is reported as 0.114.
For CATTACAA, the “PBM E-score” value was 0.212.
AAACTGGA was tested, and the “PBM E-score” value was 0.102.
AAACATAT was tested, and the “PBM E-score” value was 0.267.
CCACAGTC was tested, and the “PBM E-score” value was -0.308.
With CAGCGTAA the “PBM E-score” value was 0.024.
For CGATCGTC, the “PBM E-score” value was -0.0685.
In the case of ATAGGGGC, the “PBM E-score” value is reported as -0.263.
With AGAGACGA the “PBM E-score” value was 0.014.
CCGTGAGC was tested, and the “PBM E-score” value was -0.0664.
For ACCGTTCC, the “PBM E-score” value was 0.0208.
CACCAGTA was tested, and the “PBM E-score” value was -0.059.
With GCAGTGGC the “PBM E-score” value was -0.0364.
AAACGTCG was tested, and the “PBM E-score” value was -0.0497.
In the case of AATTATGT, the “PBM E-score” value is reported as 0.147.
For GAACTGGC, the “PBM E-score” value was -0.117.
With ACTACGCG the “PBM E-score” value was -0.068.
AGAAGAGC was tested, and the “PBM E-score” value was -0.0588.
In the case of CCGAATCG, the “PBM E-score” value is reported as 0.153.
For AGACCACA, the “PBM E-score” value was -0.25.
In the case of GAGAGCTC, the “PBM E-score” value is reported as -0.119.
In the case of CTCCACTA, the “PBM E-score” value is reported as -0.137.
With AATCGCGT the “PBM E-score” value was 0.0398.
For AGATCCAG, the “PBM E-score” value was -0.03.
With ATCAGTTC the “PBM E-score” value was -0.0531.
AATCGGTA was tested, and the “PBM E-score” value was 0.0655.
For AGTTGGAA, the “PBM E-score” value was 0.0348.
For GAATGTGA, the “PBM E-score” value was 0.082.
For CATTCGCA, the “PBM E-score” value was -0.0433.
TCACCTAA was tested, and the “PBM E-score” value was 0.0844.
For AAGGCCCT, the “PBM E-score” value was -0.226.
CCCACCAA was tested, and the “PBM E-score” value was 0.0281.
CTCAAAGC was tested, and the “PBM E-score” value was 0.105.
AGTCGCAA was tested, and the “PBM E-score” value was -0.0255.
ATTAATAG was tested, and the “PBM E-score” value was 0.117.
For AGGGTCAT, the “PBM E-score” value was -0.201.
For AGCGTACG, the “PBM E-score” value was -0.206.
For GTGTAGTA, the “PBM E-score” value was -0.0262.
In the case of CTGGCTGA, the “PBM E-score” value is reported as 0.0245.
For AACGTCGT, the “PBM E-score” value was -0.129.
For CTAGAACA, the “PBM E-score” value was 0.14.
In the case of CCGTAAGA, the “PBM E-score” value is reported as 0.0164.
With ACCTTAGC the “PBM E-score” value was -0.0352.
GGGCCCCC was tested, and the “PBM E-score” value was -0.309.
AACCCCGA was tested, and the “PBM E-score” value was 0.447.
TGAGCGAA was tested, and the “PBM E-score” value was 0.0958.
With TGGTCCAA the “PBM E-score” value was -0.193.
In the case of CTAGGGAG, the “PBM E-score” value is reported as -0.142.
With AGGTAGGA the “PBM E-score” value was 0.0679.
For GACCTAAA, the “PBM E-score” value was 0.0696.
In the case of ACACGATA, the “PBM E-score” value is reported as 0.143.
GAAAGCAA was tested, and the “PBM E-score” value was 0.251.
AACCAACC was tested, and the “PBM E-score” value was -0.178.
ACAGGTCG was tested, and the “PBM E-score” value was -0.161.
With ATAGTTAC the “PBM E-score” value was 0.148.
For AATTGTGG, the “PBM E-score” value was 0.0677.
In the case of TCTCATCA, the “PBM E-score” value is reported as 0.184.
In the case of CTGTAGGC, the “PBM E-score” value is reported as -0.132.
With GGCTCTGA the “PBM E-score” value was -0.112.
For GTGGGGCA, the “PBM E-score” value was -0.31.
For ATCACTTA, the “PBM E-score” value was 0.174.
In the case of ATTAATCG, the “PBM E-score” value is reported as 0.162.
In the case of CTACACTA, the “PBM E-score” value is reported as -0.103.
In the case of GGTGTAAA, the “PBM E-score” value is reported as 0.034.
With CTTACTTA the “PBM E-score” value was 0.11.
CACGTTAC was tested, and the “PBM E-score” value was -0.132.
In the case of CTGTGTTA, the “PBM E-score” value is reported as 0.0581.
For GGTTTCTA, the “PBM E-score” value was 0.125.
ATTATCCA was tested, and the “PBM E-score” value was 0.12.
For GTCGTTCA, the “PBM E-score” value was -0.0765.
For CTACGGCA, the “PBM E-score” value was -0.0588.
In the case of GATTTAAC, the “PBM E-score” value is reported as 0.255.
With CCGGCCAA the “PBM E-score” value was 0.0275.
For AATGCCAG, the “PBM E-score” value was -0.103.
With CCTGCATC the “PBM E-score” value was -0.178.
ACGATACT was tested, and the “PBM E-score” value was 0.00477.
For ATGCGTAG, the “PBM E-score” value was 0.0426.
For CTACATAC, the “PBM E-score” value was 0.103.
With CGGCGAGA the “PBM E-score” value was -0.146.
In the case of ATGCCACC, the “PBM E-score” value is reported as -0.161.
In the case of ATTATAGC, the “PBM E-score” value is reported as 0.0353.
GCTGGCGA was tested, and the “PBM E-score” value was -0.0978.
In the case of CAGTGGAC, the “PBM E-score” value is reported as -0.146.
ATGCCTCA was tested, and the “PBM E-score” value was 0.049.
CGGAGCAG was tested, and the “PBM E-score” value was 0.216.
In the case of TAGTCGAA, the “PBM E-score” value is reported as 0.163.
In the case of AGTACGAA, the “PBM E-score” value is reported as 0.2.
For TATATGCA, the “PBM E-score” value was 0.071.
For CGCCAGCA, the “PBM E-score” value was -0.0929.
GTAGTAGA was tested, and the “PBM E-score” value was -0.0221.
For CAACAACA, the “PBM E-score” value was 0.089.
In the case of CCGCACCC, the “PBM E-score” value is reported as -0.0835.
For CGCCGACC, the “PBM E-score” value was -0.215.
In the case of ACGCCCAG, the “PBM E-score” value is reported as -0.128.
CGAAGAGA was tested, and the “PBM E-score” value was 0.00695.
In the case of AGGCATCA, the “PBM E-score” value is reported as -0.134.
With TCAGATAA the “PBM E-score” value was 0.108.
For AGATCGCA, the “PBM E-score” value was -0.067.
With AACAGTCC the “PBM E-score” value was 0.115.
For GGCGGGCA, the “PBM E-score” value was -0.0949.
For ACGGACCT, the “PBM E-score” value was 0.339.
